The other results are listed elsewhere or left out.

The test deals with T1, MBP-FoxP1dN (Mus musculus, UniProt P58462 326-579).
T1 sequence: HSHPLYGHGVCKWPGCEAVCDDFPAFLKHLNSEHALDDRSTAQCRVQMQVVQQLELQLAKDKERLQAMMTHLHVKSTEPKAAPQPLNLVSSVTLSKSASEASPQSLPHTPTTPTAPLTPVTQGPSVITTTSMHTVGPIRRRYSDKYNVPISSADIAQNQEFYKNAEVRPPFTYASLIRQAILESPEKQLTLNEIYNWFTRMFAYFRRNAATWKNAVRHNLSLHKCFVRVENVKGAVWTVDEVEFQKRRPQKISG
The test is described as follows: PD-seq (MBP pull-down with sequencing); 20 mM Tris-HCl pH 7.5, 100 mM NaCl, 1.5 mM MgCl2, 0.4 uM protein, 0.1 uM dsDNA library, 30 min, room temperature, amylose pull-down; high values mean tight binding. The settings on record: protein: recombinant; tags: His6-MBP; chain copies: 2; dsDNA, one strand shown. In short, it runs like this:
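Binding is reads-per-million enrichment of pull-down over input, with replicates pooled. It comes from 30 min room-temperature incubation in Tris pH 7.5 buffer with NaCl and MgCl2 of 0.4 µM His6-MBP-tagged, N-terminally truncated mouse FoxP3 or FoxP1 fragment from E. coli with 0.1 µM Klenow-filled degenerate double-stranded DNA library, followed by amylose resin capture, three washes and Illumina sequencing of the released DNA.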
In the case of “GATGATTGTTCTCCCAGCTGATGAATTATGCGAGTCGAGTAAACAAATTTTCCTAATCTTTCTGTTCAAGCGCCATCTAC”, the binding signal was 0.95 RPM ratio (pull-down/input).

As for “GATGATTGTTCTCCCAGCTGATGAATTTGGGTTGTCGAGTAAACAAATTTTCCTAATCTTTCTGTTCAAGCGCCATCTAC”, the binding signal is 0.959 RPM ratio (pull-down/input).

For the sequence “GATGATTGTTCTCCCAGCTGATGAATTGATTAACTCGAGTAAACAAATTTTCCTAATCTTTCTGTTCAAGCGCCATCTAC”, the binding signal is 1.04 RPM ratio (pull-down/input).

For “GATGATTGTTCTCCCAGCTGATGAATTCAATTATTCGAGTAAACAAATTTTCCTAATCTTTCTGTTCAAGCGCCATCTAC”, the binding signal was 1.12 RPM ratio (pull-down/input).

In the case of “GATGATTGTTCTCCCAGCTGATGAATTGCCAGATTCGAGTAAACAAATTTTCCTAATCTTTCTGTTCAAGCGCCATCTAC”, the binding signal was 0.901 RPM ratio (pull-down/input).

For “GATGATTGTTCTCCCAGCTGATGAATTTCCCTATTCGAGTAAACAAATTTTCCTAATCTTTCTGTTCAAGCGCCATCTAC”, the binding signal was 0.889 RPM ratio (pull-down/input).

For “GATGATTGTTCTCCCAGCTGATGAATTTATGCGTTCGAGTAAACAAATTTTCCTAATCTTTCTGTTCAAGCGCCATCTAC”, the binding signal was 1.3 RPM ratio (pull-down/input).

As for “GATGATTGTTCTCCCAGCTGATGAATTGCAAGGCTCGAGTAAACAAATTTTCCTAATCTTTCTGTTCAAGCGCCATCTAC”, the binding signal is 1.02 RPM ratio (pull-down/input).

Consider “GATGATTGTTCTCCCAGCTGATGAATTCGCCTTGTCGAGTAAACAAATTTTCCTAATCTTTCTGTTCAAGCGCCATCTAC”, for which the binding signal was 0.89 RPM ratio (pull-down/input).

Consider “GATGATTGTTCTCCCAGCTGATGAATTCAGATGGTCGAGTAAACAAATTTTCCTAATCTTTCTGTTCAAGCGCCATCTAC”, for which the binding signal was 0.816 RPM ratio (pull-down/input).

For “GATGATTGTTCTCCCAGCTGATGAATTTTTCTTCTCGAGTAAACAAATTTTCCTAATCTTTCTGTTCAAGCGCCATCTAC”, the binding signal is 0.898 RPM ratio (pull-down/input).

For “GATGATTGTTCTCCCAGCTGATGAATTCCTATGTTCGAGTAAACAAATTTTCCTAATCTTTCTGTTCAAGCGCCATCTAC”, the binding signal was 1.06 RPM ratio (pull-down/input).

For “GATGATTGTTCTCCCAGCTGATGAATTAGGAATCTCGAGTAAACAAATTTTCCTAATCTTTCTGTTCAAGCGCCATCTAC”, the binding signal is 0.857 RPM ratio (pull-down/input).

With “GATGATTGTTCTCCCAGCTGATGAATTTGGAGTATCGAGTAAACAAATTTTCCTAATCTTTCTGTTCAAGCGCCATCTAC”, the binding signal is 0.963 RPM ratio (pull-down/input).

For “GATGATTGTTCTCCCAGCTGATGAATTTTATGTGTCGAGTAAACAAATTTTCCTAATCTTTCTGTTCAAGCGCCATCTAC”, the binding signal was 1.13 RPM ratio (pull-down/input).

As to “GATGATTGTTCTCCCAGCTGATGAATTATGTTCCTCGAGTAAACAAATTTTCCTAATCTTTCTGTTCAAGCGCCATCTAC”, the binding signal was 1.04 RPM ratio (pull-down/input).

Take “GATGATTGTTCTCCCAGCTGATGAATTGAATTTGTCGAGTAAACAAATTTTCCTAATCTTTCTGTTCAAGCGCCATCTAC”: the binding signal is 0.98 RPM ratio (pull-down/input).

As to “GATGATTGTTCTCCCAGCTGATGAATTGGATGCATCGAGTAAACAAATTTTCCTAATCTTTCTGTTCAAGCGCCATCTAC”, the binding signal is 1.45 RPM ratio (pull-down/input).

With “GATGATTGTTCTCCCAGCTGATGAATTGGGGTGCTCGAGTAAACAAATTTTCCTAATCTTTCTGTTCAAGCGCCATCTAC”, the binding signal was 0.852 RPM ratio (pull-down/input).

For “GATGATTGTTCTCCCAGCTGATGAATTTCAAGGCTCGAGTAAACAAATTTTCCTAATCTTTCTGTTCAAGCGCCATCTAC”, the binding signal was 0.74 RPM ratio (pull-down/input).

With “GATGATTGTTCTCCCAGCTGATGAATTGTGAAAGTCGAGTAAACAAATTTTCCTAATCTTTCTGTTCAAGCGCCATCTAC”, the binding signal is 1.01 RPM ratio (pull-down/input).

As for “GATGATTGTTCTCCCAGCTGATGAATTCGGTGTTTCGAGTAAACAAATTTTCCTAATCTTTCTGTTCAAGCGCCATCTAC”, the binding signal is 1.04 RPM ratio (pull-down/input).

Turning to “GATGATTGTTCTCCCAGCTGATGAATTAACGAGCTCGAGTAAACAAATTTTCCTAATCTTTCTGTTCAAGCGCCATCTAC”, the binding signal is 0.81 RPM ratio (pull-down/input).

As to “GATGATTGTTCTCCCAGCTGATGAATTTGCTTGATCGAGTAAACAAATTTTCCTAATCTTTCTGTTCAAGCGCCATCTAC”, the binding signal was 1.12 RPM ratio (pull-down/input).

With “GATGATTGTTCTCCCAGCTGATGAATTCGAGAGTTCGAGTAAACAAATTTTCCTAATCTTTCTGTTCAAGCGCCATCTAC”, the binding signal is 0.759 RPM ratio (pull-down/input).

As to “GATGATTGTTCTCCCAGCTGATGAATTGGCGTATTCGAGTAAACAAATTTTCCTAATCTTTCTGTTCAAGCGCCATCTAC”, the binding signal was 1.03 RPM ratio (pull-down/input).

Turning to “GATGATTGTTCTCCCAGCTGATGAATTTACTTAGTCGAGTAAACAAATTTTCCTAATCTTTCTGTTCAAGCGCCATCTAC”, the binding signal was 1.44 RPM ratio (pull-down/input).

As to “GATGATTGTTCTCCCAGCTGATGAATTGTCCAAGTCGAGTAAACAAATTTTCCTAATCTTTCTGTTCAAGCGCCATCTAC”, the binding signal was 0.936 RPM ratio (pull-down/input).

Regarding “GATGATTGTTCTCCCAGCTGATGAATTTCTGCCATCGAGTAAACAAATTTTCCTAATCTTTCTGTTCAAGCGCCATCTAC”, the binding signal was 0.889 RPM ratio (pull-down/input).

For the sequence “GATGATTGTTCTCCCAGCTGATGAATTCTTACGTTCGAGTAAACAAATTTTCCTAATCTTTCTGTTCAAGCGCCATCTAC”, the binding signal is 0.856 RPM ratio (pull-down/input).

In the case of “GATGATTGTTCTCCCAGCTGATGAATTAGTAAGCTCGAGTAAACAAATTTTCCTAATCTTTCTGTTCAAGCGCCATCTAC”, the binding signal was 1.06 RPM ratio (pull-down/input).
